Experimental data taken from the supplement of paper PMC4967469.

Experiments:
Assay in all cases: Viability of human cancer cell lines after 72 h of drug (GDSC screen)
[1] = compound: CC(C)(C)c1nc(-c2cccc(NS(=O)(=O)c3c(F)cccc3F)c2F)c(-c2ccnc(N)n2)s1 [Dabrafenib]; settings: top dose 10 µM
Experimental: (§1)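 Human cancer cell lines in 384-well plates, medium with 10% serum, drug for 72 h over a 256-fold dose range (nine 2-fold or five 4-fold steps up to the top dose). Adherent lines were fixed and stained with the nucleic acid dye Syto60, suspension lines read with resazurin; signal relative to control wells, capped at 0 and 100%. One two-parameter sigmoid per drug and line, fitted in a mixed model over all curves with the slope shared within a line.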

[2] = compound: CCc1c2c(nc3ccc(O)cc13)-c1cc3c(c(=O)n1C2)COC(=O)[C@]3(O)CC [SN-38]; settings: top dose 0.05 µM; top dose inferred
Experimental: as §1

[3] = compound: CN(Cc1cnc2nc(N)nc(N)c2n1)c1ccc(C(=O)N[C@@H](CCC(=O)O)C(=O)O)cc1 [Methotrexate]; settings: top dose 0.2 µM
Experimental: as §1

[4] = compound: CNC(=O)c1ccccc1Sc1ccc2c(/C=C/c3ccccn3)n[nH]c2c1 [Axitinib]; settings: top dose 2 µM
Experimental: as §1

[5] = compound: O=C(CCCCCCC(=O)Nc1ccccc1)NO [Vorinostat]; settings: top dose 10 µM
Experimental: as §1

## NCI-H1395 (lung adenocarcinoma, adherent)
[1]
  AUC: 0.971
  IC50: > 10000 nM
[2]
  AUC: 0.696
  IC50: 13.4 nM
[3]
  AUC: 0.965
  IC50: > 200 nM
[4]
  AUC: 0.965
  IC50: > 2000 nM
[5]
  AUC: 0.876
  IC50: > 10000 nM

## NCI-H1435 (lung adenocarcinoma, semi-adherent)
[1]
  AUC: 0.992
  IC50: > 10000 nM
[2]
  AUC: 0.944
  IC50: > 50 nM
[3]
  AUC: 0.988
  IC50: > 200 nM
[4]
  AUC: 0.986
  IC50: > 2000 nM
[5]
  AUC: 0.539
  IC50: 791 nM

## NCI-H1436 (small cell lung carcinoma, suspension)
[1]
  AUC: 0.968
  IC50: > 10000 nM
[2]
  AUC: 0.905
  IC50: > 50 nM
[3]
  AUC: 0.962
  IC50: > 200 nM
[4]
  AUC: 0.974
  IC50: > 2000 nM
[5]
  AUC: 0.74
  IC50: 3400 nM

## NCI-H1437 (lung adenocarcinoma, adherent)
[1]
  AUC: 0.985
  IC50: > 10000 nM
[2]
  AUC: 0.911
  IC50: > 50 nM
[3]
  AUC: 0.889
  IC50: > 200 nM
[4]
  AUC: 0.95
  IC50: > 2000 nM
[5]
  AUC: 0.686
  IC50: 2120 nM

## NCI-H1563 (lung adenocarcinoma, adherent)
[1]
  AUC: 0.954
  IC50: > 10000 nM
[2]
  AUC: 0.925
  IC50: > 50 nM
[3]
  AUC: 0.96
  IC50: > 200 nM
[4]
  AUC: 0.811
  IC50: 1320 nM
[5]
  AUC: 0.756
  IC50: 4020 nM

## NCI-H1568 (lung adenocarcinoma, adherent)
[1]
  AUC: 0.939
  IC50: > 10000 nM
[2]
  AUC: 0.684
  IC50: 11.7 nM
[3]
  AUC: 0.957
  IC50: > 200 nM
[4]
  AUC: 0.979
  IC50: > 2000 nM
[5]
  AUC: 0.836
  IC50: 9080 nM

## NCI-H1623 (lung adenocarcinoma, adherent)
[1]
  AUC: 0.983
  IC50: > 10000 nM
[2]
  AUC: 0.446
  IC50: 2.16 nM
[3]
  AUC: 0.982
  IC50: > 200 nM
[4]
  AUC: 0.982
  IC50: > 2000 nM
[5]
  AUC: 0.851
  IC50: > 10000 nM

## NCI-H1648 (lung adenocarcinoma, adherent)
[1]
  AUC: 0.978
  IC50: > 10000 nM
[2]
  AUC: 0.783
  IC50: 22.4 nM
[3]
  AUC: 0.98
  IC50: > 200 nM
[4]
  AUC: 0.96
  IC50: > 2000 nM
[5]
  AUC: 0.793
  IC50: 4870 nM

## NCI-H1651 (lung adenocarcinoma, adherent)
[1]
  AUC: 0.944
  IC50: > 10000 nM
[2]
  AUC: 0.58
  IC50: 5.28 nM
[3]
  AUC: 0.978
  IC50: > 200 nM
[4]
  AUC: 0.987
  IC50: > 2000 nM
[5]
  AUC: 0.763
  IC50: 3890 nM

## NCI-H1666 (lung adenocarcinoma, semi-adherent)
[1]
  AUC: 0.874
  IC50: > 10000 nM
[2]
  AUC: 0.733
  IC50: 15.5 nM
[3]
  AUC: 0.912
  IC50: > 200 nM
[4]
  AUC: 0.985
  IC50: > 2000 nM
[5]
  AUC: 0.681
  IC50: 2110 nM

## NCI-H1688 (small cell lung carcinoma, adherent)
[1]
  AUC: 0.985
  IC50: > 10000 nM
[2]
  AUC: 0.881
  IC50: > 50 nM
[3]
  AUC: 0.984
  IC50: > 200 nM
[4]
  AUC: 0.967
  IC50: > 2000 nM
[5]
  AUC: 0.7
  IC50: 2440 nM

## NCI-H1693 (lung adenocarcinoma, adherent)
[1]
  AUC: 0.946
  IC50: > 10000 nM
[2]
  AUC: 0.649
  IC50: 10.4 nM
[3]
  AUC: 0.966
  IC50: > 200 nM
[4]
  AUC: 0.957
  IC50: > 2000 nM
[5]
  AUC: 0.826
  IC50: > 10000 nM

## NCI-H1694 (small cell lung carcinoma, suspension)
[1]
  AUC: 0.988
  IC50: > 10000 nM
[2]
  AUC: 0.734
  IC50: 14.4 nM
[3]
  AUC: 0.989
  IC50: > 200 nM
[4]
  AUC: 0.944
  IC50: > 2000 nM
[5]
  AUC: 0.646
  IC50: 1580 nM

## NCI-H1755 (lung adenocarcinoma, adherent)
[1]
  AUC: 0.894
  IC50: > 10000 nM
[2]
  AUC: 0.92
  IC50: > 50 nM
[3]
  AUC: 0.902
  IC50: > 200 nM
[4]
  AUC: 0.947
  IC50: > 2000 nM
[5]
  AUC: 0.857
  IC50: > 10000 nM

## NCI-H1770 (non-small cell lung carcinoma, suspension)
[1]
  AUC: 0.991
  IC50: > 10000 nM
[2]
  AUC: 0.943
  IC50: > 50 nM
[3]
  AUC: 0.992
  IC50: > 200 nM
[4]
  AUC: 0.986
  IC50: > 2000 nM
[5]
  AUC: 0.632
  IC50: 1370 nM

## NCI-H1781 (lung adenocarcinoma, adherent)
[1]
  AUC: 0.983
  IC50: > 10000 nM
[2]
  AUC: 0.622
  IC50: 6.75 nM
[3]
  AUC: 0.989
  IC50: > 200 nM
[4]
  AUC: 0.944
  IC50: > 2000 nM
[5]
  AUC: 0.927
  IC50: > 10000 nM

## NCI-H1836 (small cell lung carcinoma, suspension)
[1]
  AUC: 0.986
  IC50: > 10000 nM
[2]
  AUC: 0.956
  IC50: > 50 nM
[3]
  AUC: 0.985
  IC50: > 200 nM
[4]
  AUC: 0.988
  IC50: > 2000 nM
[5]
  AUC: 0.814
  IC50: 6120 nM

## NCI-H1838 (lung adenocarcinoma, adherent)
[1]
  AUC: 0.97
  IC50: > 10000 nM
[2]
  AUC: 0.921
  IC50: > 50 nM
[3]
  AUC: 0.952
  IC50: > 200 nM
[4]
  AUC: 0.987
  IC50: > 2000 nM
[5]
  AUC: 0.852
  IC50: > 10000 nM

## NCI-H1869 (lung squamous cell carcinoma, adherent)
[1]
  AUC: 0.981
  IC50: > 10000 nM
[2]
  AUC: 0.903
  IC50: > 50 nM
[3]
  AUC: 0.985
  IC50: > 200 nM
[4]
  AUC: 0.983
  IC50: > 2000 nM
[5]
  AUC: 0.86
  IC50: > 10000 nM

## NCI-H1944 (lung adenocarcinoma, adherent)
[1]
  AUC: 0.98
  IC50: > 10000 nM
[2]
  AUC: 0.72
  IC50: 13.8 nM
[3]
  AUC: 0.985
  IC50: > 200 nM
[4]
  AUC: 0.956
  IC50: > 2000 nM
[5]
  AUC: 0.802
  IC50: 5310 nM

## NCI-H2009 (lung adenocarcinoma, adherent)
[1]
  AUC: 0.973
  IC50: > 10000 nM
[2]
  AUC: 0.574
  IC50: 5.05 nM
[3]
  AUC: 0.985
  IC50: > 200 nM
[4]
  AUC: 0.929
  IC50: > 2000 nM
[5]
  AUC: 0.566
  IC50: 958 nM

## NCI-H2029 (small cell lung carcinoma, adherent)
[1]
  AUC: 0.992
  IC50: > 10000 nM
[2]
  AUC: 0.907
  IC50: > 50 nM
[3]
  AUC: 0.992
  IC50: > 200 nM
[4]
  AUC: 0.959
  IC50: > 2000 nM
[5]
  AUC: 0.862
  IC50: 7240 nM

## NCI-H2087 (lung adenocarcinoma, semi-adherent)
[1]
  AUC: 0.813
  IC50: 5910 nM
[2]
  AUC: 0.553
  IC50: 4.4 nM
[3]
  AUC: 0.983
  IC50: > 200 nM
[4]
  AUC: 0.986
  IC50: > 2000 nM
[5]
  AUC: 0.879
  IC50: > 10000 nM

## NCI-H2110 (non-small cell lung carcinoma, adherent)
[1]
  AUC: 0.978
  IC50: > 10000 nM
[2]
  AUC: 0.687
  IC50: 10.6 nM
[3]
  AUC: 0.904
  IC50: > 200 nM
[4]
  AUC: 0.946
  IC50: > 2000 nM
[5]
  AUC: 0.759
  IC50: 3570 nM

The IC50 comes from the fitted curve, where viability falls to half of the control; fits outside the tested doses are given as limits. AUC sums up the same curve from the lowest dose to the 256-fold higher top dose; values near 1 show little effect. For part of these data: Where the top dose is marked as inferred, it comes from the curve model; the source does not state it.
